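Exposure lasted 48 hours, with cells grown in 96-well plates and compounds tested at five concentrations. GI50: concentration for 50% inhibition of growth. TGI: concentration producing complete growth inhibition.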

This assay concerns NCI-H322M lung. Briefly: NCI anticancer screen, dose series, 48 h.
The molecule `OC12C3C4CC5C(C4[C@@H]1Br)C2[C@@](O)(c1c(F)c(F)c(F)c(F)c1F)C53` (stereo not given in full) gave a TGI of more than 100 µM.
The molecule `COc1ccc(/C=C2\Sc3nnc(C)n3N=C2c2cc(F)c(Cl)cc2Cl)cc1OC` displayed a TGI of 31.9 µM.
Molecule `OC(C1=C/C(=C\c2ccncc2)c2ccccc21)c1ccncc1` (stereo not given) yielded a TGI of 43.1 µM.
Molecule `C=C(C)[C@@H]1CC[C@]2(CO)CC[C@]3(C)[C@H](CC[C@@H]4[C@@]5(C)CC[C@H](O)C(C)(C)[C@@H]5CC[C@]43C)[C@@H]12` showed a TGI of 25.5 µM.
As for `CC1(C)OC[C@@H]([C@@]2(CO[Si](C)(C)C(C)(C)C)CC=CC(=O)O2)O1`, the GI50 is 21.5 µM and the TGI was 66.3 µM.
Take `C\C=C/C=C/C=C/C(=O)O`: the TGI was more than 100 µM.
`O=C1c2cc([N+](=O)[O-])cnc2S(=O)(=O)N1c1ccc(Br)cc1` registered a TGI of more than 100 µM.
On the same count and under the same terms, under `Cc1ccc(S(=O)(=O)N(CC(O)c2ccccc2)c2ccccc2F)cc1` (stereo not given) stands 43.3 µM.
Turning to `COc1ccc(OC)c(C(=O)/C=C/c2cc(O)c(O)cc2F)c1`, the TGI was found to be 21.3 µM.
In the case of `C/C=C1\CN2CCC34c5ccccc5N(C)C35OCC4(C(=O)OC)C1CC25` (stereo not given), the TGI was more than 100 µM.
For `Cc1ccc(S(=O)(=O)NC(=O)NC(Cc2ccccc2)C(=O)O)cc1` (stereo not given), the TGI was more than 100 µM.
The molecule `CC(=O)NC1=C(Nc2ccc(C)cc2)C(=O)c2ccccc2C1=O` returned a TGI of 26.4 µM.
For `CC(=O)[C@H]1CC[C@H]2[C@@H]3CCC4=CC(=O)CC[C@]4(C)[C@H]3CC[C@]12C`, the TGI was more than 100 µM.
On to `NCCCC(=O)Nc1ccncc1`, for which the GI50 is more than 100 µM and the TGI is more than 100 µM.
On to `C=CCn1c(-c2ccccc2)cs/c1=N\C(P(=O)(O)O)P(=O)(O)O`, for which the TGI was more than 100 µM.
The molecule `CC1(CO)OC1COCc1ccccc1` (stereo not given) came in with a TGI of more than 100 µM.
As for `C1CNCCNCCNCCN1`, the TGI is more than 100 µM.
The molecule `[N-]=[N+]=NC1=NNC2(C(=O)N1)c1ccccc1-c1ccccc12` came in with a TGI of more than 100 µM.
`COc1ccc(C(=O)C(c2ccc(OC)cc2)C2(O)C(=O)Nc3c(C)cc(Cl)cc32)cc1` (stereo not given) gave a TGI of more than 100 µM.
As to `CCCCCNC(=O)[C@@H]1CCCN2C(=O)CC[C@H](NC(=O)[C@H](Cc3ccc(OP(=O)(O)O)cc3)NC(C)=O)C(=O)N12`, the GI50 was more than 25 µM and the TGI was more than 25 µM.
As for `O=c1[nH]nc(Cc2ccccc2)n1/N=C/c1ccc([N+](=O)[O-])o1`, the TGI came to 20.7 µM.
In the case of `COC1/C(=C\C(=O)OC(C)(C)C)c2ccccc2N1C(C)=O` (stereo not given), the TGI is more than 100 µM.
Take `CCOC(=O)CCCn1c(SC)nc2cc(-c3ccco3)[nH]c2c1=O`: the GI50 was more than 100 µM and the TGI is more than 100 µM.
For the molecule `COC(=O)C1=C(O)C(C(=O)OC)[C@]2(O)[C@H](C(=O)OC)[C@H]1C[C@@H](c1cccc(OC)c1)[C@H]2C(=O)OC` (stereo not given in full), the TGI is 92.9 µM.
On to `CN(C)NC1=NS(=O)(=O)c2cc3c(cc2S1)N(N(C)C)C(=O)c1cc2c(cc1N(N(C)C)C3=O)SC(NN(C)C)=NS2(=O)=O`, for which the TGI is more than 10 µM.
Still for that read-out and setting: in the case of `NNC(=Nc1ccccc1)SCc1ccccc1` it was more than 100 µM.
`CC1(CCc2ccccc2)CC1(Br)Br` (stereo not given) had a TGI of more than 100 µM.
Molecule `Cc1ccccc1C(=O)C#Cc1cn(C2CC(O)C(CO)O2)c(=O)[nH]c1=O` (stereo not given) yielded a TGI of more than 100 µM.
`Cc1ccc(S(=O)(=O)Nc2nc3ccccc3c(=O)n2C2CCCCC2)cc1` displayed a TGI of more than 100 µM.
For `Cc1ccc(C(=O)Cc2nc3ncccc3[nH]c2=O)cc1`, the TGI was more than 100 µM.
Still for that read-out and setting: in the case of `O=C(/C=C/C=C/c1ccccc1)CCc1ccccc1` it was more than 100 µM.
Regarding `c1ccc(C(=NNc2nc3ccccc3o2)c2ccccn2)nc1`, the GI50 was 0.048 µM.
For the molecule `c1cc2c(cc1C(N1CCNCC1)N1CCNCC1)OCO2`, the TGI was more than 100 µM.
For `O=C(O)c1c2c(c(C(=O)O)c3ccccc13)-c1ccccc1-2`, the TGI is more than 100 µM.
In turn, `O=C1CSC(c2cccc(Cl)c2)N1c1c(O)c(Cl)cc(Br)c1Cl` (stereo not given) yielded a TGI of more than 100 µM.
`Cc1cc(O)c(C(=O)CC2(O)C(=O)Nc3c(Cl)cc(Cl)cc32)c(=O)o1` (stereo not given) showed a TGI of more than 100 µM.

For the origin of these results see PubChem BioAssay (NCI).
